According to article PMC4336329 (PLoS ONE, 2015):
About 2,200 (0.71%) of roughly 310,000 compounds showed an effect of 50% or more. The effect is printed as a negative number. The list shows a part of the results.

biological target: human ether-à-go-go-related gene (hERG) potassium channel (human, UniProt Q12809); assay: primary screen, population patch clamp on CHO cells stably expressing hERG
Sequence (Q12809 whole entry, looked up): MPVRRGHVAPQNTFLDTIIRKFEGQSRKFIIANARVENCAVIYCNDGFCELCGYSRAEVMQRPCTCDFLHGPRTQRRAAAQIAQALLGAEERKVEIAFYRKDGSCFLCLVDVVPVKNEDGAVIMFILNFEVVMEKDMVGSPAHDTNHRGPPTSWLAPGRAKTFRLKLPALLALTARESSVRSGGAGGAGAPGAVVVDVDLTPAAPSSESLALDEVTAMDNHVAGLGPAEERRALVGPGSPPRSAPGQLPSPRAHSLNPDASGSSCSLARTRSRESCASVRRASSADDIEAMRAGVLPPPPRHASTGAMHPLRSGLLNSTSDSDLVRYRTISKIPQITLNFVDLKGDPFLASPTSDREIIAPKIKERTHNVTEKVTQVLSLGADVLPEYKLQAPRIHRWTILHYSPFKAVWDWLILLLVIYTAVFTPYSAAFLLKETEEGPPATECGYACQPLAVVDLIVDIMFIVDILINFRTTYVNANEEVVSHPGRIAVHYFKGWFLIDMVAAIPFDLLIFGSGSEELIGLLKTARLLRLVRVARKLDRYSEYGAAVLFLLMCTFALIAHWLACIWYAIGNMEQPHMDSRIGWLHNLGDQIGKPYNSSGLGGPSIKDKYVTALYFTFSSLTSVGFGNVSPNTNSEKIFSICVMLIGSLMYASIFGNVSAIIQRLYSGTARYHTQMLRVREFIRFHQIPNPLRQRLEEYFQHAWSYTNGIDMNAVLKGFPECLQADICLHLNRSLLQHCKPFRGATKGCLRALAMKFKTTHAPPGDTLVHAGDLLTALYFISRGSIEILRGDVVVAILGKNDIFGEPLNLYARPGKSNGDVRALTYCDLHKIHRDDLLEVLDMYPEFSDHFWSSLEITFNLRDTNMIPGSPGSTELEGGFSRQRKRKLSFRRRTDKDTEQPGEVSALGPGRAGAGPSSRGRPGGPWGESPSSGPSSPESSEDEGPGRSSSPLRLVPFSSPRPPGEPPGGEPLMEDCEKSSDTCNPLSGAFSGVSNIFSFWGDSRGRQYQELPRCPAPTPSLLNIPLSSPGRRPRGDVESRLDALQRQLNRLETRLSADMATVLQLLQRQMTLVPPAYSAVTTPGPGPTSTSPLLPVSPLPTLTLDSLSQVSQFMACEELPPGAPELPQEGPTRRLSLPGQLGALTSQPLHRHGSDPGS

| Structure (SMILES) | hERG current change (%, negative = inhibition) at 1uM |
| --- | --- |
| O=C(N/N=C/c1cccnc1)c1ccc(S(=O)(=O)N2CCCCCC2)cc1 | 7.54% |
| O=C(CSc1nnc(Cn2nnc3ccccc32)o1)N(Cc1ccc(F)cc1)c1ccccc1 | -1.71% |
| Cc1ccccc1CN(c1ccc(C(=O)Nc2cccnc2)cc1)S(C)(=O)=O | 3.11% |
| COc1ccc(Nc2oc(COc3ccccc3OC)nc2C#N)cc1 | 8% |
| COc1ccc(F)cc1C(=O)C1CCCN(C(=O)c2ccccc2N(C)C)C1 (centres unmarked) | 2.58% |
| CN(C)CCCn1c(SCC(=O)Nc2nccs2)nnc1-c1ccncc1 | 15.9% |
| Cl.c1ccc(OCCN2C3=NCCN3c3ccccc32)cc1 | -51.5% |
| COc1ccccc1CNC(=O)CCc1c(C)nc2cc(-c3ccccc3OC)nn2c1C | 2.88% |
| Cc1cc(C(=O)N/N=C/c2cccc(Cl)c2Cl)no1 | 3.36% |
| COc1ccc(OC)c(S(=O)(=O)N(C)CC(=O)Nc2cc(Cl)ccc2OC)c1 | -4.33% |
| CCc1ccc2[nH]c(=O)c(Cc3ccccc3)c(O)c2c1 | 3.87% |
| OCCNc1nc(C2CC2)nc2c1nnn2Cc1ccccc1Cl | 10.4% |
| COC(=O)c1ccc(NC(=O)c2cccc(N3C(=O)C4C5C=CC(C6CC56)C4C3=O)c2)cc1 (centres unmarked) | 8.79% |
| CC(=O)Oc1ccc2oc(-c3ccccc3)c(C(N)=O)c2c1 | -4.49% |
| O=C(C1CCCN(S(=O)(=O)c2cccnc2)C1)N1CCn2c1nc1ccccc12 (centres unmarked) | -3.85% |
| Cc1onc(-c2ccccc2)c1C(=O)NC(=S)NNC(=O)c1ccco1 | 12.8% |
| Cc1sc2ncn(Cc3ccccc3F)c(=O)c2c1C | 1.65% |
| Cc1onc(-c2ccccc2)c1C(=O)N/N=C/c1ccco1 | 10.6% |
| CCCCS(=O)(=O)/C=C\C=C/S(=O)(=O)CCCC | 6.71% |
| Cc1ccc(NC(=O)Nc2cccnc2)cc1 | 7.24% |
| C=Cn1ccnc1P(=S)(c1ccc2c(c1)c1ccccc1n2CC)c1nccn1C=C | 9% |
| Cc1ccc(Oc2ccc(NC(=O)C3=CC=CN4CCS(=O)(=O)N=C34)cc2)cc1 | 0.359% |
| COc1ccc(NS(=O)(=O)c2cccs2)cn1 | 4.27% |

| Structure (SMILES) | hERG current change (%, negative = inhibition) at 1uM |
| --- | --- |
| CCN(CC)C(=O)C1CCCN(c2ncnc3c2cnn3-c2ccc(Cl)cc2)C1 (centres unmarked) | -1.93% |
| COc1ccc(C)cc1NC(=O)CN1CCN(c2ccc(F)cc2)CC1 | -8.46% |
| CS(=O)(=O)c1ccc([C@@H](O)[C@@H](CF)NC(=O)C(Cl)Cl)cc1 | -2.82% |
| COC(=O)c1ccc(CSc2nc3sc(C)c(C)c3c(=O)[nH]2)cc1 | 2.36% |
| C/C(=N\NC(=O)c1cc(-c2cccnc2)nc2ccccc12)c1ccccc1O | -7.84% |
| COc1ccccc1OCc1nnc(SCC(=O)Nc2ccc(C)cc2)n1C | 3.43% |
| COCCN(C(=O)CSc1nc2ccccc2c(=O)n1CC(C)C)c1c(N)n(Cc2ccccc2)c(=O)[nH]c1=O | 11.8% |
| CCOc1ccccc1C(=O)Nc1c[nH]c(=O)[nH]c1=O | 14% |
| CNc1nc(C23CC4CC(CC(C4)C2)C3)cs1 | 21.7% |
| Cc1ccc(/C=N/NC(=O)Cn2ccc(C(F)(F)F)n2)o1 | 6.89% |
| COc1cc2c(cc1OC)CN(C(=S)Nc1ccccc1Cl)CC2 | 6.57% |
| O=C(OCC(=O)N1CCN(C(=O)c2ccco2)CC1)c1ccccc1C(=O)c1ccccc1 | 0.0205% |
| CCc1cc(=O)oc2cc(C)cc(OC(C)C(=O)O)c12 (centres unmarked) | -1.9% |
| CCC(C)[C@H](NC(=O)NCCC1=CCCCC1)C(=O)OC (some centres unmarked) | 7.96% |
| Cc1sc2ncnc(-n3cnc4ccccc43)c2c1C | 6.66% |
| O=S(=O)(Nc1ccc(S(=O)(=O)Nc2ccccc2)cc1)c1ccccc1 | -1.25% |
| COC(=O)c1cccc(NC(=S)NCc2ccc(F)cc2)c1 | 10.7% |
| O=C(COC(=O)/C=C/c1ccc2c(c1)OCO2)NC1CCS(=O)(=O)C1 (centres unmarked) | 6.45% |
| COc1cccc(NC(=O)CN(C)C(=O)Cc2c(C)nc3ccccc3c2C)c1 | -17% |
| O=C(COC(=O)c1cc([N+](=O)[O-])ccc1N1CCOCC1)Nc1ccccc1OC(F)F | 10.1% |
| COCCSc1nnc(NC(=O)CS(=O)(=O)c2ccc(C)cc2)s1 | 14.4% |
| Cc1ccc(OCC(=O)N2CCc3ccccc3C2)c(C)c1 | 15.4% |
| O=C(CCN1CCCCC1)Nc1ccc(Br)cc1 | -6.16% |

| Structure (SMILES) | hERG current change (%, negative = inhibition) at 1uM |
| --- | --- |
| O=C(CCN1C(=O)c2ccccc2S1(=O)=O)Nc1ccccc1O | 3.78% |
| Cc1ccc2oc(-c3cccc(NC(=O)Cc4cccs4)c3)nc2c1 | 11.6% |
| O=C(c1ccco1)c1cn[nH]c1-c1ccc(Cl)cc1O | 3.82% |
| COc1ccc(-n2c3c(cc(C#N)c2=O)C(=O)CCC3)cc1 | 8.17% |
| CC1=C(CC(=O)O)c2cc(F)ccc2/C1=C/c1ccc(S(C)=O)cc1 (centres unmarked) | 13.7% |
| COc1ccc(N(C(=O)Cc2cccs2)C(C(=O)NC2CCCC2)c2ccncc2)cc1OC (centres unmarked) | 13.5% |
| C=C(C)C(=O)Oc1ccc(N2C(=O)[C@@H]3C4C=CC(C4)[C@@H]3C2=O)cc1 | 15.7% |
| O=C(NC1CCN(C(=S)Nc2ccc(Cl)cc2)CC1)c1ccco1 | -13.6% |
| CN1C(=O)C(CC(=O)Nc2ccccc2)S/C1=N/c1nccs1 (centres unmarked) | 1.94% |
| O=C(CSCc1c(F)cccc1Cl)NCc1cccnc1 | -4.2% |
| CN(C)C1C(=O)C(C(N)=O)=C(O)C2(O)C(=O)C3=C(O)c4c(O)cccc4C(C)(O)C3C(O)C12 (centres unmarked) | 8.05% |
| Cc1ccc(-n2nc3c(c2NC(=O)c2cc4ccccc4o2)CS(=O)(=O)C3)cc1 | 12.5% |
| CCOC(=O)C1CN(S(=O)(=O)c2cc(OC)ccc2OC)C1 | 16.2% |
| Cn1c(N)c(C(=O)CSc2nc3ccccc3c(=O)n2CCCN2CCOCC2)c(=O)n(C)c1=O | 10.7% |
| O=Cc1c(NCCc2cccc(F)c2)c2ccccc2[nH]c1=O | 8.81% |
| CCOC(=O)C1CCN(C(=O)COc2ccc(N(C)S(=O)(=O)c3cccs3)cc2)CC1 | -8.97% |
| O=C1CNC(=O)/C(=C/c2ccco2)N1 | 19.2% |
| O=C(COC(=O)c1cc(-c2cccs2)nc2ccccc12)NC1CCS(=O)(=O)C1 (centres unmarked) | 5.26% |
| Oc1ccc(/C=N/NC(=S)NCc2ccco2)cc1 | 5.21% |
| C=C(C)CSc1nc(N)c2c(C)c(C)sc2n1 | 10.3% |
| COc1ccc2cc3cc(C(=O)Nc4ccccc4N4CCN(C)CC4)oc3nc2c1 | 15.8% |
| O=C(O)C(=O)O.O=C(c1cccs1)N1CCN(Cc2ccncc2)CC1 | 2.14% |
| Cc1cc(=O)oc(C)c1C(=O)N1CCCc2ccccc21 | 7.12% |

| Structure (SMILES) | hERG current change (%, negative = inhibition) at 1uM |
| --- | --- |
| COc1cccc(/C(O)=C2/C(=O)C(=O)N(CCCN3CCOCC3)C2c2ccncc2)c1 (centres unmarked) | 17.3% |
| Cc1ccc2c(c1)N(C(=O)CCC(=O)N1CCN(c3ccccn3)CC1)CCO2 | -12.3% |
| CCOC(=O)c1ccc(NS(=O)(=O)c2ccc(Cl)nc2)cc1 | 8.99% |
| Cc1cc(C)cc(N(CC(=O)NC2CCCC2)C(=O)CCC(=O)Nc2nc(C)cs2)c1 | 5.09% |
| N#C/C(=C\c1cn[nH]c1-c1ccc(Cl)cc1)C(=O)NC1CC1 | 11.1% |
| COc1ccccc1CNc1ccc2nnc(CCNC(=O)c3ccccc3)n2n1 | 9.44% |
| O=C1C=C(Nc2ccc(O)cc2)CC(c2ccco2)C1 (centres unmarked) | 4.41% |
| O=C(/C=C/c1ccc(F)cc1)NC(=S)N1C[C@H]2C[C@H](C1)c1cccc(=O)n1C2 | -6.44% |
| Cc1ccccc1NS(=O)(=O)c1ccc(C(=O)NNC(=O)c2ccccc2O)cc1 | 7.38% |
| Cc1ccc(Cn2c(=O)c3c(ncn3C)n(C)c2=O)cc1 | 11.8% |
| COc1ccc2cc[nH]c2c1 | 12.3% |
| Cc1ccc(CNC2=NCCS2)cc1 | 12.7% |
| CCOc1ccccc1NC(=O)Cn1nnc(C(=O)NCc2ccco2)c1N | 12.1% |
| CCOc1ccccc1CN1CCNC(=O)C1CC(=O)NCCCn1cccn1 (centres unmarked) | 8.63% |
| CCCC(=O)NCc1ccc2c(c1)cc(C)n2C | 11.2% |
| O=C(Nc1nccs1)c1ccccc1Br | -20.3% |
| CCOC(=O)c1ccc(NC(=O)c2ccc(CO)c(C(=O)NC3CCN(C(=O)OCC)CC3)c2)cc1 | 19% |
| CC(C)N(C(=O)C[n+]1ccc(/C=N/O)cc1)C(C)C | 8.44% |
| COc1cccc(C(=O)N(C)CC(=O)Nc2ccc(F)c(F)c2F)c1 | 7.4% |
| COCCNC(=O)c1cc(C(=O)CC(C)C)c[nH]1 | 12.7% |
